# Source: the supplement of paper PMC8728848
# The other results are listed elsewhere or left out.
# B1: rCNL (Clitocybe nebularis), B2ZRS9 (protein)
# chain: SITPGTYNITNVAYTNRLIDLTGSNPAENTLIIGHHLNKTPSGYGNQQWTLVQLPHTTIYTMQAVNPQSYVRVRDDNLVDGAALVGSQQPTPVSIESAGNSGQFRIKIPNLGLALTLPSDANSTPIVLGEVDETSTNQLWAFESVSAV
# Legend:
# Test in all cases: glycan array binding signal (z-score within array); higher = stronger binding
# Details in all cases: glycan notation: IUPAC condensed, linker removed
# [1] = target: GalNAc(b1-4)GlcNAc(b1-2)Man
# Outline: (§1)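 The binding signal is a Z-score computed within each array and averaged over linkers. Arrays of the same protein sequence at different concentrations or buffers were also averaged together. Data originate from 3228 arrays in the Consortium for Functional Glycomics database, kept only where the protein sequence was available.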
# [2] = target: GalNAc(b1-4)GlcNAc(b1-2)Man(a1-3)[GalNAc(b1-4)GlcNAc(b1-2)Man(a1-6)]Man(b1-4)GlcNAc(b1-4)GlcNAc
# Outline: as §1
# [3] = target: GalNAc(b1-4)GlcNAc(b1-3)GalNAc(b1-4)GlcNAc
# Outline: as §1
# [4] = target: GalNAc(b1-4)GlcNAc6S
# Outline: as §1
# [5] = target: GalNAc(b1-6)GalNAc
# Outline: as §1
# [6] = target: GalNAc3S(b1-4)GlcNAc
# Outline: as §1
# [7] = target: GalNAc3S(b1-4)GlcNAc3S
# Outline: as §1
# [8] = target: GalNAc3S(b1-4)[Fuc(a1-3)]GlcNAc
# Outline: as §1
# [9] = target: GalNAc4S6S(b1-4)GlcNAc
# Outline: as §1
# [10] = target: GalNAc6S(b1-4)GlcNAc
# Outline: as §1
# [11] = target: Glc(a1-4)Glc
# Outline: as §1
# [12] = target: Glc(a1-4)Glc(a1-4)Glc(a1-4)Glc
# Outline: as §1
# [13] = target: Glc(a1-6)Glc(a1-6)Glc
# Outline: as §1
# [14] = target: Glc(a1-6)Glc(a1-6)Glc(a1-6)Glc
# Outline: as §1
# [15] = target: Glc(b1-4)Glc
# Outline: as §1
# [16] = target: Glc(b1-6)Glc
# Outline: as §1
# [17] = target: GlcA(b1-3)Gal
# Outline: as §1
# [18] = target: GlcA(b1-3)GlcNAc
# Outline: as §1
# [19] = target: GlcA(b1-6)Gal
# Outline: as §1
# [20] = target: GlcA3S(b1-3)Gal(b1-4)GlcNAc(b1-2)Man
# Outline: as §1
# [21] = target: GlcA3S(b1-3)Gal(b1-4)GlcNAc(b1-3)Gal(b1-4)Glc
# Outline: as §1
# [22] = target: GlcNAc(a1-3)Gal(b1-4)GlcNAc
# Outline: as §1
# [23] = target: GlcNAc(a1-4)Gal(b1-3)GlcNAc
# Outline: as §1
# [24] = target: GlcNAc(a1-4)Gal(b1-4)GalNAc
# Outline: as §1
# [25] = target: GlcNAc(a1-4)Gal(b1-4)GlcNAc
# Outline: as §1
# [26] = target: GlcNAc(a1-4)Gal(b1-4)GlcNAc(b1-3)Gal(b1-4)Glc
# Outline: as §1
# [27] = target: GlcNAc(a1-4)Gal(b1-4)GlcNAc(b1-3)Gal(b1-4)GlcNAc
# Outline: as §1
# [28] = target: GlcNAc(a1-4)Gal(b1-4)GlcNAc(b1-3)Gal(b1-4)GlcNAc(b1-3)Gal(b1-4)GlcNAc
# Outline: as §1
# [29] = target: GlcNAc(a1-4)Gal(b1-4)GlcNAc(b1-3)Gal(b1-4)[Fuc(a1-3)]GlcNAc(b1-3)Gal(b1-4)[Fuc(a1-3)]GlcNAc
# Outline: as §1
# [30] = target: GlcNAc(a1-6)Gal(b1-4)GlcNAc
# Outline: as §1
# [31] = target: GlcNAc(b1-2)Gal(b1-3)GalNAc
# Outline: as §1
# [32] = target: GlcNAc(b1-2)Man(a1-3)[GlcNAc(b1-2)Man(a1-6)]Man(b1-4)GlcNAc(b1-4)GlcNAc
# Outline: as §1
# [33] = target: GlcNAc(b1-2)Man(a1-3)[GlcNAc(b1-2)Man(a1-6)]Man(b1-4)GlcNAc(b1-4)[Fuc(a1-6)]GlcNAc
# Outline: as §1
# [34] = target: GlcNAc(b1-2)Man(a1-3)[GlcNAc(b1-4)][GlcNAc(b1-2)Man(a1-6)]Man(b1-4)GlcNAc(b1-4)GlcNAc
# Outline: as §1
# [35] = target: GlcNAc(b1-2)Man(a1-3)[GlcNAc(b1-4)][GlcNAc(b1-2)Man(a1-6)]Man(b1-4)GlcNAc(b1-4)[Fuc(a1-6)]GlcNAc
# Outline: as §1
# [36] = target: GlcNAc(b1-2)[GlcNAc(b1-4)]Man(a1-3)[GlcNAc(b1-2)Man(a1-6)]Man(b1-4)GlcNAc(b1-4)GlcNAc
# Outline: as §1
# [37] = target: GlcNAc(b1-2)[GlcNAc(b1-4)]Man(a1-3)[GlcNAc(b1-4)][GlcNAc(b1-2)Man(a1-6)]Man(b1-4)GlcNAc(b1-4)GlcNAc
# Outline: as §1
# [38] = target: GlcNAc(b1-2)[GlcNAc(b1-4)]Man(a1-3)[GlcNAc(b1-4)][GlcNAc(b1-2)[GlcNAc(b1-6)]Man(a1-6)]Man(b1-4)GlcNAc(b1-4)GlcNAc
# Outline: as §1
# [39] = target: GlcNAc(b1-2)[GlcNAc(b1-4)]Man(a1-3)[GlcNAc(b1-4)][GlcNAc(b1-2)[GlcNAc(b1-6)]Man(a1-6)]Man(b1-4)GlcNAc(b1-4)[Fuc(a1-6)]GlcNAc
# Outline: as §1
# [40] = target: GlcNAc(b1-2)[GlcNAc(b1-6)]Man(a1-6)[GlcNAc(b1-2)Man(a1-3)]Man(b1-4)GlcNAc(b1-4)GlcNAc
# Outline: as §1
# [41] = target: GlcNAc(b1-2)[GlcNAc(b1-6)]Man(a1-6)[GlcNAc(b1-2)Man(a1-3)]Man(b1-4)GlcNAc(b1-4)[Fuc(a1-6)]GlcNAc
# Outline: as §1
# [42] = target: GlcNAc(b1-2)[GlcNAc(b1-6)]Man(a1-6)[GlcNAc(b1-4)][GlcNAc(b1-2)Man(a1-3)]Man(b1-4)GlcNAc(b1-4)GlcNAc
# Outline: as §1
# [43] = target: GlcNAc(b1-3)Fuc
# Outline: as §1
# [44] = target: GlcNAc(b1-3)Gal
# Outline: as §1
# [45] = target: GlcNAc(b1-3)Gal(b1-3)GalNAc
# Outline: as §1
binder,measurement,setting,value
B1,glycan array binding signal (z-score),[1],6.09
same,glycan array binding signal (z-score),[2],0.998
same,glycan array binding signal (z-score),[3],7.74
same,glycan array binding signal (z-score),[4],4.96
same,glycan array binding signal (z-score),[5],-0.227
same,glycan array binding signal (z-score),[6],-0.223
same,glycan array binding signal (z-score),[7],-0.224
same,glycan array binding signal (z-score),[8],-0.22
same,glycan array binding signal (z-score),[9],-0.228
same,glycan array binding signal (z-score),[10],7.28
same,glycan array binding signal (z-score),[11],-0.308
same,glycan array binding signal (z-score),[12],-0.217
same,glycan array binding signal (z-score),[13],-0.288
same,glycan array binding signal (z-score),[14],-0.213
same,glycan array binding signal (z-score),[15],-0.31
same,glycan array binding signal (z-score),[16],-0.297
same,glycan array binding signal (z-score),[17],-0.304
same,glycan array binding signal (z-score),[18],-0.297
same,glycan array binding signal (z-score),[19],-0.301
same,glycan array binding signal (z-score),[20],-0.226
same,glycan array binding signal (z-score),[21],-0.227
same,glycan array binding signal (z-score),[22],0.044
same,glycan array binding signal (z-score),[23],-0.306
same,glycan array binding signal (z-score),[24],-0.295
same,glycan array binding signal (z-score),[25],-0.305
same,glycan array binding signal (z-score),[26],-0.109
same,glycan array binding signal (z-score),[27],0.009
same,glycan array binding signal (z-score),[28],0.017
same,glycan array binding signal (z-score),[29],-0.282
same,glycan array binding signal (z-score),[30],0.139
same,glycan array binding signal (z-score),[31],0.191
same,glycan array binding signal (z-score),[32],-0.157
same,glycan array binding signal (z-score),[33],-0.206
same,glycan array binding signal (z-score),[34],-0.223
same,glycan array binding signal (z-score),[35],-0.228
same,glycan array binding signal (z-score),[36],-0.103
same,glycan array binding signal (z-score),[37],-0.225
same,glycan array binding signal (z-score),[38],-0.218
same,glycan array binding signal (z-score),[39],-0.227
same,glycan array binding signal (z-score),[40],-0.215
same,glycan array binding signal (z-score),[41],-0.225
same,glycan array binding signal (z-score),[42],-0.224
same,glycan array binding signal (z-score),[43],-0.226
same,glycan array binding signal (z-score),[44],-0.152
same,glycan array binding signal (z-score),[45],-0.105
